# Test results reported in paper PMC4336329 (PLoS ONE, 2015).
# In all, about 310,000 compounds went through this assay and about 2,200 (0.71%) showed an effect of 50% or more. Effects have a minus sign here. The list shows a part of the results.
# Biological target: human ether-à-go-go-related gene (hERG) potassium channel (human, UniProt Q12809)
# Experiment: primary screen, population patch clamp on CHO cells stably expressing hERG
# Sequence of human ether-à-go-go-related gene (hERG) potassium channel (Q12809 whole entry, looked up): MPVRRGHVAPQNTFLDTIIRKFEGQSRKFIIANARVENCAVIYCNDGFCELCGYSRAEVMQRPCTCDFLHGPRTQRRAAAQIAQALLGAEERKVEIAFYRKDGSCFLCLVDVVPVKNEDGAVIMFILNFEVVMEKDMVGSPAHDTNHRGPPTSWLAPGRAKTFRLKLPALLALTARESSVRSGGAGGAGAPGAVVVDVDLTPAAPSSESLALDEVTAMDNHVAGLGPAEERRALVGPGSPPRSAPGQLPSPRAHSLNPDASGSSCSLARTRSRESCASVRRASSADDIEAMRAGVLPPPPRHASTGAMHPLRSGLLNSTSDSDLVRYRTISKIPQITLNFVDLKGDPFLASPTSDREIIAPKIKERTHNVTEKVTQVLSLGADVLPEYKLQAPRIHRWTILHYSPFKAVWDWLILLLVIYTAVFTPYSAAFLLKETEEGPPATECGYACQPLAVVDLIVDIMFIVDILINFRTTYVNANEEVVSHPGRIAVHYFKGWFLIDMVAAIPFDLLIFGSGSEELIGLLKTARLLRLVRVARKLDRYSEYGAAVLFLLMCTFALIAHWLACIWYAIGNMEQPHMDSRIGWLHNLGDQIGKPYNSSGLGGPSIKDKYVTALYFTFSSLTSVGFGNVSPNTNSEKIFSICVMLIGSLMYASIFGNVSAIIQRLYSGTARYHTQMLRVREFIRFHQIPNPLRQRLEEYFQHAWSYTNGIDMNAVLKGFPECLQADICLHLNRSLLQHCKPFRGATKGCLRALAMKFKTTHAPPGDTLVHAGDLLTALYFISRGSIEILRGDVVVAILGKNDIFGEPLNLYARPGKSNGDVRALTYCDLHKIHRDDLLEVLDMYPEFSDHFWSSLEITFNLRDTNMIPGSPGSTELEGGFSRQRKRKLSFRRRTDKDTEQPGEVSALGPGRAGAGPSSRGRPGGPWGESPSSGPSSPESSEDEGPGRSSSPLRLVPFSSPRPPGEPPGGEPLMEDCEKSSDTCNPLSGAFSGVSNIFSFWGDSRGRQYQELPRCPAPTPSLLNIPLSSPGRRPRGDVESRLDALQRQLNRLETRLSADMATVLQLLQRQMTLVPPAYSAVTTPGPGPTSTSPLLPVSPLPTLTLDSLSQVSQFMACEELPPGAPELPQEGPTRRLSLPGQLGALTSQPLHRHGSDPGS
row,SMILES,"hERG current change (%, negative = inhibition) at 1uM [%]"
1,CCCNC(=S)Nc1ccccc1,16.2
2,O=C(O)Cc1sc(NCc2ccco2)nc1-c1ccccc1,-7.64
3,Cc1cc(NC(=O)c2ccco2)c(=O)n(Cc2c(F)cccc2Cl)c1,8.57
4,Cc1ccc(OCC(=O)N(Cc2ccccc2)c2c(N)n(Cc3ccccc3)c(=O)[nH]c2=O)c(C)c1,12
5,CCOC(=O)Cn1cnc2c(nnn2-c2ccc(F)cc2)c1=O,8.58
6,CCOC(=O)c1oc2ccccc2c1NC(=O)CN1CCN(C)CC1,-31.4
7,COc1cc(-c2cn(S(=O)(=O)c3cccc4nsnc34)nc2N)cc(OC)c1OC,-1.03
8,CSc1nnc2n(Cc3ccccc3)c(=O)c3c4c(sc3n12)COC(C(C)C)C4 (stereo not drawn),3.43
9,C(=N\NC1=Nc2cccc3cccc1c23)/c1ccccc1,15.2
10,CCn1c2ccccc2c2nnc(SCCCn3c(=O)[nH]c4ccccc43)nc21,5.08
11,CC(C)NC(=O)COC(=O)c1ccc(NS(=O)(=O)c2ccc3c(c2)OCCO3)cc1,12.2
12,CCOc1ccc(NC(=O)COC(=O)CNC(=O)c2ccc(-c3ccccc3)cc2)cc1,6.44
13,Cc1cc(C(=O)Nc2ccc(Cl)c(S(=O)(=O)N3CCOCC3)c2)c2ccccc2n1,9.36
14,COc1ccc(S(=O)(=O)N2CCCC(C(=O)NCc3ccc(F)cc3)C2)cc1 (stereo not drawn),11.6
15,CC1CCN(S(=O)(=O)c2ccc(C(=O)Nc3nnc(-c4ccncc4)o3)cc2)CC1,7.8
16,CCNC(=O)/C=C1\NC(C)(C)Cc2c1ccc1ccccc21,12.3
17,O=C(Nc1ccccc1)N(Cc1ccc(Cl)cc1)CC(O)C(F)(F)F (stereo not drawn),9.35
18,O=[N+]([O-])c1ccc(Nc2nc(NC3CCCCC3)nc(N3CCCC3)n2)cc1,11.6
19,CN1CC[C@@]2(C)c3cc(O)ccc3N(C)C2O1 (stereo partly drawn),4.17

row,SMILES,"hERG current change (%, negative = inhibition) at 1uM [%]"
1,Fc1ccc(Cn2nnnc2C(c2cccs2)N2CCN(C3CCCCC3)CC2)cc1 (stereo not drawn),-51.6
2,O=C(CSc1nncc(=O)[nH]1)Nc1cccc([N+](=O)[O-])c1,0.998
3,COc1cc(/C=N/n2c(C3CCCCC3)n[nH]c2=S)cc(OC)c1O,19.3
4,COc1ccc(CCN(C)C(=O)C2CC(=O)N(Cc3ccc(C)cc3)C2)cc1OC (stereo not drawn),6.14
5,Cc1cc(O)c2c3c(c(=O)oc2c1)CCC(C)C3 (stereo not drawn),10.1
6,CN(C)C(=Nc1ccccc1)P(=S)(N(C)C)N(C)C,12.3
7,CCOc1cc(/C=N\Nc2nc(-c3ccc(C)cc3)c(NC(C)=O)s2)ccc1O,1.33
8,COc1ccccc1NC(=O)C1C2C=CC3(CN(Cc4cccnc4)C(=O)C13)O2 (stereo not drawn),14.4
9,Cc1ccccc1-c1cc2nc(-c3ccc([N+](=O)[O-])cc3)cc(=O)n2[nH]1,16.9
10,O=c1c(C=Nc2ccc(Cl)cc2)c[nH]n1-c1cccc(Cl)n1,11.3
11,COC(=O)CSCc1nc2ccccc2[nH]c1=O,14.6
12,CC1(C)OC(=O)C=C(CC2NS(=O)(=O)OC3CCCCC23)O1 (stereo not drawn),6.9
13,O=C1CC(c2ccccc2)CN1 (stereo not drawn),15.1
14,COc1ccc(S(=O)(=O)NCCC(=O)NC2CCCCCCC2)cc1,-10.3
15,CC(C)n1nc(C(=O)Nc2nnc(SCc3c(Cl)cccc3Cl)s2)c2ccccc2c1=O,2.74
16,O=C(CC1CC2CCC1C2)NC1CCCCCCC1 (stereo not drawn),11.9
17,O=C(OCc1nnc(-c2ccc(Cl)cc2)o1)C12CC3CC(CC(O)(C3)C1)C2,2.61
18,CC(C)N(Cc1cc2ccccc2[nH]c1=O)C(=O)c1cccnc1,3.69
19,Cc1ccc(OCC(O)CN2CCOCC2)cc1 (stereo not drawn),12.8

row,SMILES,"hERG current change (%, negative = inhibition) at 1uM [%]"
1,Cc1ccc(S(=O)(=O)NCCSc2nnnn2-c2ccccc2)cc1,-4.5
2,CCCc1nnc(NC(=O)CCC(=O)Nc2ccc(Br)cc2)s1,16.6
3,COc1ccc(NS(=O)(=O)c2ccc(C)c(NC(=O)CN3C(=O)NC4(CCCC4)C3=O)c2)cc1,-0.94
4,CC(=O)Nc1cc(C(=O)N2CCc3ccccc3C2)ccc1Sc1ccc(F)cc1,2.27
5,O=c1c(-c2ccc(O)cc2)coc2c([C@@H]3O[C@H](CO)[C@@H](O)[C@H](O)[C@H]3O)c(O)ccc12,14
6,N#Cc1cc(Sc2ccccn2)c([N+](=O)[O-])cc1C#N,9.57
7,Cc1nn(C)cc1/C=N\NC(=O)c1ccc2c(c1)c(C)c(C)n2Cc1ccccc1,15.9
8,COc1ccccc1CNC(=O)C1CC(c2ccccc2C(F)(F)F)=NO1 (stereo not drawn),6.23
9,O=C(O)C1C2C=CC(C2)C1C(=O)NCCCN1CCCC1=O (stereo not drawn),7.12
10,COC(=O)C1=C(C)NC(=O)CC1c1cccc(Cl)c1Cl (stereo not drawn),5.06
11,COc1ccccc1NC(=O)c1nn(-c2ccccc2)ccc1=O,12.1
12,CCCCc1n[nH]c2c1/C(=N/O)CC(c1ccccc1)C2 (stereo not drawn),16.7
13,O=C(NCc1ccccc1CN1CCCCC1)c1ccccc1N1CCCC1=O,18.3
14,Cn1cnc2cc(NC(=O)c3ccco3)ccc21,16.7
15,O=c1[nH]c(CN2CCN(CCO)CC2)nc2ccccc12,19.8
16,Cn1c(O)c(C=NCCN2CCOCC2)c(=O)[nH]c1=S,8.39
17,O=C(NC1CCCCC1)c1ccc(-c2ccccc2)cc1,17.4
18,Cc1ccc2c(c1)N(CC(=O)N1CCC(C)CC1)C(=O)c1cccnc1O2,-2.61
19,COc1ccc(N(C)S(=O)(=O)c2cccc(C(=O)Nc3nc(C)c(C(C)=O)s3)c2)cc1,9
